This is an account of results in paper PMC12136788.

To fix the notation:
B1: chr1:117910967:117910968:+_ENSG00000198162_ENST00000356554|hu_hu|FALSE|FALSE (ssRNA)
RNA: GGGAGUUCUACAGUCCGACGAUCUUUUGAAGAGUCUGGAAGGAAAAAGAAUGCCCCAAAACACAGAGUGAUGAAGGCACUAAGAAUAAGGAGAAGAAUAAACUUCUCAGAAAGUCUCAAGGUAGCCCUGUGAUGUGGGAAGGACAACAGAGGAUUGAGCAUCA
B2: chr8:95500983:95500984:-_ENSG00000164944_ENST00000437199|hu_hu|hu_hu_hu_mus_True|38_88 (ssRNA)
RNA: GGGAGUUCUACAGUCCGACGAUCAGAACACAUCUAUCGAGUAAAGGGAGCGUACAUACGGCCUCUACCACUGCCUCCACUAACAAACUUUCCUCUCUGAGCCUCCAUGCCGCUAUUUGUACUAGCCCAGGACGGUCCCAGGCCCAACAGAGGAUUGAGCAUCA
B3: chr3:47719781:47719782:-_ENSG00000173473_ENST00000254480|hu_mus|FALSE|FALSE (ssRNA)
RNA: GGGAGUUCUACAGUCCGACGAUCAUGAACCCUCAUCACAGCACACACAUCUCCAGUCAGGUUUCGCCGGCAAGCAGUGCUGGUUAAAUAUUCUUGAGGGUUUAGACGGUAUGUGUCAAUCAUAAAAUUUCGAUAUGCCAAGUACAACAGAGGAUUGAGCAUCA
B4: chr6:13622506:13622507:-_ENSG00000010017_ENST00000011619|hu_hu|motif|central (ssRNA)
RNA: GGGAGUUCUACAGUCCGACGAUCCUAGGAAGCAAUGUAAAGCGACAAAAACCUGUCCCCAGUACAUAAUUUAAAAAAUCGGAAUUUCAAAUCAGCAGAGCUGGUCUACUUCCAUGUUGACUAUAUGCCACAAUAUAAGUGUGACAACAGAGGAUUGAGCAUCA
B5: chr5:65459698:65459699:+_ENSG00000153914_ENST00000334121|hu_mus|motif|central (ssRNA)
RNA: GGGAGUUCUACAGUCCGACGAUCCAUUACUUCUUCUAACUCCUUAGCUGCAGCCUGAGGUGUCAUCUCAGGAGGUUUUACGGUUGCAUUGUUGGAGUGAUUUAUUUUCAGUGGCCUGUCUCCAAACAUAACUCCAUUAAAAGCCAACAGAGGAUUGAGCAUCA
B6: chr6:30690706:30690707:+_ENSG00000196230_ENST00000327892|hu_hu|FALSE|FALSE (ssRNA)
RNA: GGGAGUUCUACAGUCCGACGAUCUGAGCGAACAGAGUCCAUGGUCCCAGGUUCUAGAUCCACCAGGAUGGCACGAGGAACAUAUUUGCCACCUGUGGCUUCAUUGUAGUACACAGAGAUGCGGUCCAGCUGCAGGUCGCUGUCCAACAGAGGAUUGAGCAUCA
B7: chr6:29325759:29325760:+_ENSMUSG00000029767_ENSMUST00000031779|mus_hu|FALSE|FALSE (ssRNA)
RNA: GGGAGUUCUACAGUCCGACGAUCAGGCAGGAAAGGUAAGCCAUGGUCCUCAAACCAAAGAGCCCUCUCUGUAGGUCCUCUGAUCUUUGAGUGUGAGCUCAAGCUCUCCAGUGGACACAGAAAAAGGCCUGGUAGUAAGUGGUUCAACAGAGGAUUGAGCAUCA
B8: chr2:9570881:9570882:+_ENSG00000119203_ENST00000238112|hu_mus|hu_hu_hu_mus_False|48_108 (ssRNA)
RNA: GGGAGUUCUACAGUCCGACGAUCACUUGUCUUCUGUAGGAACCAGGGCAGGGCUCCACAGUGAUCCAAAUGGAAAUGACUGAUCAAUAGGAGAUCAAUCUCAGCUGGGUCGAUAAGGUCAAUGUAAGGAAGGGCAUCCAUUCCCAACAGAGGAUUGAGCAUCA
B9: chr16:94651144:94651145:+_ENSMUSG00000040785_ENSMUST00000117648|mus_hu|mus_mus_mus_hu_True|18_48 (ssRNA)
RNA: GGGAGUUCUACAGUCCGACGAUCAUUUUCUUGAAUCAAGUGGCGAAUAACAUAGUCCACUGCUUCAUUUAGAAAAUUUCUGCUAGAAAAGCAUGUUGUAUAGUCUUCUGUGCUCAAAACCUUCCAAGAAAGCAAUUCUUUGAGCAACAGAGGAUUGAGCAUCA
B10: chr13:13598695:13598696:+_ENSMUSG00000005397_ENSMUST00000005532|mus_hu|motif|central (ssRNA)
RNA: GGGAGUUCUACAGUCCGACGAUCCACCAAGUCAGUCUCAAAGAGCACCCGGCGCUGCGUGCCGUCCAGCUUCGCCACUUCGGUUCGAUCCAGGUUAGAGUCUGUCCAGAAGAUGUUGCGGCCAAGGUGAUCAACAGCGAUACCCAACAGAGGAUUGAGCAUCA
B11: chr14:70542292:70542293:-_ENSMUSG00000033712_ENSMUST00000035612|mus_hu|FALSE|FALSE (ssRNA)
RNA: GGGAGUUCUACAGUCCGACGAUCCAAAGUAGGCAUGAUGGUCCAGACAUCCGGCAGGUACACCACCACUGUCUGAAGCCGCCGGGGGGGUCCCGGCUGCAGGUACUGAAACUCGGCAAAGCGCCACCACUUGGUACAGCCGCUCAACAGAGGAUUGAGCAUCA
B12: chr1:109605286:109605287:-_ENSG00000197780_ENST00000461096|hu_mus|hu_hu_hu_mus_True|18_58 (ssRNA)
RNA: GGGAGUUCUACAGUCCGACGAUCAAGUUUCAGAGUAACAUUCAGUAACCUCUUUAAAUGCAAUUAUCCUUAUUAUAAACUAAGGGCAAUAAUAAUUUAAUACCGUAAGUGAACUACCACAAAACCUUGAACCGCGAAAAUGGUCAACAGAGGAUUGAGCAUCA
B13: chr10:118639881:118639882:-_ENSMUSG00000020114_ENSMUST00000020315|mus_hu|FALSE|FALSE (ssRNA)
RNA: GGGAGUUCUACAGUCCGACGAUCAACACUAGUGGUUUUACAACCUCUGGAUUAUGGAAAUACACAUUUCUGAAAUAAAUGCUACAAAAACAACAAUGGAAGAAAGCCAAACAAACAGUCUCCAUGAAGGAAAAAAAAGUGGAACAACAGAGGAUUGAGCAUCA
B14: chr3:179287964:179287965:+_ENSG00000136518_ENST00000429709|hu_hu|hu_hu_hu_mus_True|8_78 (ssRNA)
RNA: GGGAGUUCUACAGUCCGACGAUCCUUGAGUGGUGAGAUGGCCUCCAUGUUCUCCCUCGGAACACGCAGGGCAUUGGUGUCUAUGUAGUAGGUGGGCCCGCCCUGCUUGCCUUUGUCACCAUCAAUCUCCAUUAAUGUACUUCCCAACAGAGGAUUGAGCAUCA
B15: chr19:47223328:47223329:-_ENSG00000090372_ENST00000263280|hu_hu|FALSE|FALSE (ssRNA)
RNA: GGGAGUUCUACAGUCCGACGAUCAGCAGGAGCUCAAGGGGAGAACCUGGCACCUUCUGGAGUCUUGGAAAAACUGAUCCCUAAAGACACCCGGCCCUGGCUGUGCUGCCCUCUGGAAAGCAGCUCUGAUACCAGGAGCGGCUGCAACAGAGGAUUGAGCAUCA
B16: 29961457_29961577_3458_3pUTR_ENSG00000136193_ENST00000242059|human|control|control (ssRNA)
RNA: GGGAGUUCUACAGUCCGACGAUCAGACUUCUUUUGAUCAAAUCCUGAAUCACCUUGGUUAUCUCAGACAUGUCAGGUCUGAUGAGACAUUUCAUAGUAGGCGAAGGUGAAAUCACUCAGUGAGAUUUUAGAGCAGCUUUCUGUCAACAGAGGAUUGAGCAUCA
B17: chr1:180793972:180793973:+_ENSG00000143324_ENST00000367589|hu_mus|FALSE|FALSE (ssRNA)
RNA: GGGAGUUCUACAGUCCGACGAUCGAGGACAUGAUUUACUCCAGCUUGUCUCCAACCAUAUGUGUUGAUGCCCAGUAGAAAAAGGAAUUCAAUCAGAAGAAAGCCACCCCGAUAGAUUCUUAUCAAGGGCCAUACAGUUCUAUCCAACAGAGGAUUGAGCAUCA
B18: 163841862_163842452_1081_3pUTR_ENSMUSG00000018326_ENSMUST00000018470|mouse|control|control (ssRNA)
RNA: GGGAGUUCUACAGUCCGACGAUCUCCCUCUCCAGCAUCUCCUUCAUCCCCCUGGUUUUCUGACGUCCACAGGGUGAGAUUGUCCCUGAGCAGCUGCAUGAUCAGGGUGCUGUCUUUGUAAGACUCUUCAUUCAGGGUGUCCAACAACAGAGGAUUGAGCAUCA
B19: chr3:130449232:130449233:-_ENSG00000196455_ENST00000356763|hu_hu|motif|central (ssRNA)
RNA: GGGAGUUCUACAGUCCGACGAUCCUCAUCUAUUUCUUCAUUAUUGGGGUCAUUUUCCAUAUUAAGAUUUUUUAACUGUACGGAUUCCAGGAAUCUCAGAGCUGUUUCUGCCAGCAGAGCUAUGUUUUCAGCAUAGGCUAGUCUCAACAGAGGAUUGAGCAUCA
B20: chr11:77336104:77336105:-_ENSG00000074201_ENST00000525064|hu_mus|hu_hu_hu_mus_False|68_108 (ssRNA)
RNA: GGGAGUUCUACAGUCCGACGAUCCUCGCACAUUGCAGUGAACAUCGCCUCCAAUGCUGACUUAUCACUAGGCACAAAUCGAAAUUCAGAAAUGGGUUCAACAUCAUCAUUGUCUUCCUCAUCUUCAUCAGAGAGAGGUUCUUUCAACAGAGGAUUGAGCAUCA
B21: 151889072_151891145_1785_CDS_ENSMUSG00000028034_ENSMUST00000166984|mouse|control|control (ssRNA)
RNA: GGGAGUUCUACAGUCCGACGAUCCUGCUGAUCUCCGUAGUUACCUUGUCCGUUCGUUUGGGUUGUAGCUGGUGCACCGGCAGGAGCUGCAGGUGGGGGUUGUGCCUGCUGCUGGUAAUAGUGAGCAUAAUAAGCAGCCCAAGCCAACAGAGGAUUGAGCAUCA
B22: chr4:132926270:132926271:+_ENSMUSG00000028854_ENSMUST00000030669|mus_mus|FALSE|FALSE (ssRNA)
RNA: GGGAGUUCUACAGUCCGACGAUCGAGAUUCACAAUCUCAAAGUCCAAACUGCAAAAAGGGGUUAAGUACCUUGGAGGGACUAAGGAGGAAACCGAAAGGAUCUAGAACUUCAGGCUGAGAGAAGGAAAUCGGGGAAACUGCGUCAACAGAGGAUUGAGCAUCA

This is one part of the list.

In the assay the target is T1, UNK ZnF1-3 (human, UniProt Q9C0B0 31-174).
T1 sequence: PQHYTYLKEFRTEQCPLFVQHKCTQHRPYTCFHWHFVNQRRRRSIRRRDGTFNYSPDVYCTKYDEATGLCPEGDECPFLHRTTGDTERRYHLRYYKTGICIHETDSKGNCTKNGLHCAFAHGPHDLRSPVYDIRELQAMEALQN
Put plainly: nsRBNS (natural sequence RNA bind-n-seq); RBNS binding buffer (assumed for nsRBNS): 25 mM Tris pH 7.5, 150 mM KCl, 3 mM MgCl2, 0.01% Triton X-100, 500 ug/ml BSA, 20 U/ml SUPERase-In, 4 C; UNK is unkempt and MSI1 is Musashi-1; names of the RNAs are library labels; protein concentration not given here; high values mean tight binding.
Molecule B1 came in with a binding signal of 2.76 enrichment R.
As for B2, the figure is 1.6 enrichment R; as for B3, 1.04 enrichment R; as for B4, 1.46 enrichment R.
Consider B5, for which the binding signal was found to be 0.814 enrichment R.
The result for B6 reads 0.799 enrichment R; that for B7, 0.773 enrichment R.
As for B8, the figure is 0.839 enrichment R; as for B9, 0.47 enrichment R; as for B10, 1.35 enrichment R.
Regarding B11, the binding signal is 1.13 enrichment R.
The result for B12 reads 0.706 enrichment R.
The result for B13 reads 1.73 enrichment R.
The result for B14 reads 0.4 enrichment R; that for B15, 1.86 enrichment R; that for B16, 0.923 enrichment R.
Turning to B17, the binding signal was found to be 1.41 enrichment R.
As for B18, the figure is 0.854 enrichment R; as for B19, 0.841 enrichment R.
The result for B20 reads 0.936 enrichment R; that for B21, 1.1 enrichment R.
For the molecule B22, the binding signal worked out at 2.27 enrichment R.
